Data from PubChem BioAssay AID485281 (National Center for Advancing Translational Sciences (NCATS), 2010).
Several values for one entry are separate records, joined by “and”; a condition that tells them apart may be missing. Equal entries are not always repeated. Hit rate of the full screen: of about 350,000 compounds, about 260 (0.074%) were called active. Inconclusive results, whose numbers are uncertain, are shown with a selection of clear calls. The call rests on the fitted dose curve; in most records, active means well fitted inhibition curve with a large enough effect; inconclusive means small, poorly fitted or top-dose-only effect; inactive means no such curve, though single readings can be large or run the other way. Potencies of inconclusive entries are doubtful fits and often do not repeat.

Molecular target: Ferritin light chain (Equus caballus) (UniProt P02791)
Test: qHTS Assay for Identification of Novel General Anesthetics; further: nearly all actives have a fitted effect of over 20% in size
Details: apoferritin/1-aminoanthracene competitive binding, fluorescence; activity change, negative = displacement: at 77.5 µM (top of the series)
Outline: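 Horse-spleen apoferritin (10 uM) in 50% saturated 1-aminoanthracene in PBS was incubated 10 min at room temperature with compound. Fluorescence (ex 380, em 535 nm) was normalized to free and bound 1-AMA, with concentration-response fitted by a four-parameter Hill equation.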
On the % scale 0 is the no-effect control and ±100 the full control effect; potency means the concentration at half of the fitted maximal effect; tags describe the fitted curve by direction and shape.

Chain of UniProt P02791 (P02791 whole entry, looked up): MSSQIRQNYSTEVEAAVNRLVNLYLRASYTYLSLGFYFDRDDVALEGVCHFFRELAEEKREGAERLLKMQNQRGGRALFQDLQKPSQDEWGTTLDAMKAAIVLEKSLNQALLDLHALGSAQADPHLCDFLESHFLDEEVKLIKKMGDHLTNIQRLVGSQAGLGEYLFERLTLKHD

**Q.** For COC(=O)CCCC(=O)N1CCCC(C(=O)c2ccc(-c3ccccc3)cc2)C1 (stereo not given), which Potency is on record?
**A.** inconclusive: 31.6 µM [inhibitor, single point]

**Q.** With c1csc(CNc2nc(-c3cccs3)nc3ccccc23)c1 as the compound, how does the “activity change, negative = displacement” value read?
**A.** inactive: 5.76%

**Q.** With COc1ccc(OC)c(CCNC(=O)C(C)n2nc(C)c3c(C)n(-c4ccc(C)cc4)nc3c2=O)c1 (stereo not given) as the compound, how does the Potency read?
**A.** inconclusive: 25.1 µM [inhibitor, partial curve]

**Q.** For CCCCNC(=O)CNC(=S)N(Cc1ccccc1)Cc1cccs1, which “activity change, negative = displacement” value is on record?
**A.** inactive: -11.2%

**Q.** CCOc1cc(NC(=S)NCCCN2CCOCC2)c(OCC)cc1NC(=O)c1ccc(C)cc1 was tested. Which Potency did it give?
**A.** inconclusive: 20 µM [inhibitor, partial curve]

**Q.** With C/C(CCC12CC3CC(CC(C3)C1)C2)=N\NC(N)=S as the compound, how does the Potency read?
**A.** inconclusive: 28.2 µM [inhibitor, partial curve]

**Q.** For CC1(C)C2CCC1(C)C1(C2)NC(=O)c2ccccc2O1 (stereo not given), which Potency is on record?
**A.** inconclusive: 3.98 µM [inhibitor, full curve]

**Q.** For COc1ccc(CCNc2ccc(N3C(=O)CC(C)C3=O)cc2[N+](=O)[O-])cc1 (stereo not given), which Potency is on record?
**A.** inconclusive: 11.2 µM [inhibitor, partial curve]

**Q.** With COc1ccc(CNC(=O)C/C(C)=N/NC(=O)COc2ccc(Br)cc2)cc1 as the compound, how does the Potency read?
**A.** inconclusive: 17.8 µM [inhibitor, partial curve]

**Q.** Which Potency does the source give for O=C(Nc1ccccn1)C1COc2ccccc2O1 (stereo not given) here?
**A.** inconclusive: 28.2 µM [inhibitor, single point]

**Q.** For Cc1cc(C)n(Cc2ccc(NC(=O)c3c([N+](=O)[O-])c(C)nn3C)cc2)n1, which Potency is on record?
**A.** inconclusive: 35.5 µM [inhibitor, partial curve]

**Q.** CCc1ccccc1NC(=S)N1CCN(c2ccccc2F)CC1 was tested. Which “activity change, negative = displacement” value did it give?
**A.** inactive: -16.7%

**Q.** For CCn1c(C(=O)Nc2cc(C)cc(C)c2)cc2sc(Cl)cc21, which “activity change, negative = displacement” value is on record?
**A.** inactive: 47.1%

**Q.** Which “activity change, negative = displacement” value does the source give for Cc1ccc(/C=N/NC(=O)c2ccc3ccccc3c2)s1 here?
**A.** inactive: -5.62%

**Q.** For CC1CN(c2nc3ccccn3c(=O)c2/C=C(\C#N)S(=O)(=O)c2ccccc2)CC(C)O1 (stereo not given), which Potency is on record?
**A.** inconclusive: 28.2 µM [inhibitor, partial curve]

**Q.** For C=CCOc1ccc(CN(C)Cc2nc3cc(C(F)(F)F)ccc3c(=O)[nH]2)cc1, which Potency is on record?
**A.** inconclusive: 39.8 µM [inhibitor, partial curve]

**Q.** How did the “activity change, negative = displacement” value turn out when Nc1c2c3c(sc2nc(=O)n1N)CCCC3 was run?
**A.** inactive: -4.81%

**Q.** O=C1c2ccccc2C(=O)N1Nc1ccccc1 was tested. Which Potency did it give?
**A.** inconclusive: 28.2 µM [inhibitor, partial curve]

**Q.** Which Potency does the source give for O=C(c1ccc(O)cc1)c1ccc(Cl)cc1 here?
**A.** inconclusive: 22.4 µM [inhibitor, partial curve]

**Q.** Which Potency does the source give for CC(C)c1ccc(C(=O)OC2CCOC2=O)cc1 (stereo not given) here?
**A.** inconclusive: 50.1 µM [inhibitor, single point]

**Q.** How did the Potency turn out when COC(=O)Cn1cnc2sc3c(c2c1=O)CCCC3 was run?
**A.** inconclusive: 31.6 µM [inhibitor, partial curve]

**Q.** For Cc1ccc(OCCOCCn2ccnc2)c(Br)c1, which Potency is on record?
**A.** inconclusive: 25.1 µM [inhibitor, partial curve]

**Q.** Which “activity change, negative = displacement” value does the source give for COC(=O)c1sc(NC(=O)COc2ccccc2)nc1C here?
**A.** inactive: -19.1%

**Q.** With Cn1cc(/C=N/n2cnc3sc4c(c3c2=O)CCCC4)c2ccccc21 as the compound, how does the Potency read?
**A.** inconclusive: 28.2 µM [inhibitor, single point]

**Q.** C=CCc1c(C)nc2c(OC)cccc2c1Cl was tested. Which Potency did it give?
**A.** inconclusive: 31.6 µM [inhibitor, partial curve]

**Q.** For Cc1ccc(NC(=O)CC(O)(C(F)(F)F)C(F)(F)F)cc1, which Potency is on record?
**A.** inconclusive: 35.5 µM [inhibitor, partial curve]

**Q.** For COc1cc(/C=N/Nc2ccccc2[N+](=O)[O-])cc(OC)c1O, which Potency is on record?
**A.** inconclusive: 31.6 µM [inhibitor, partial curve]

**Q.** With CSc1cccc(NC(=O)C(C)Sc2ccc(C)cc2)c1 (stereo not given) as the compound, how does the Potency read?
**A.** inconclusive: 28.2 µM [inhibitor, partial curve]

**Q.** Which “activity change, negative = displacement” value does the source give for N/C(=N\OC(=O)c1cc(-c2ccccc2)nc2ccccc12)c1ccccn1 here?
**A.** inactive: -0.411%

**Q.** How did the “activity change, negative = displacement” value turn out when CCOC(=O)c1cnc(SC)nc1N was run?
**A.** inactive: -4.77%

**Q.** For Cc1ccsc1C(=O)OCC(=O)NCc1ccc2c(c1)OCO2, which Potency is on record?
**A.** inconclusive: 0.794 µM [inhibitor, full curve, poor fit]

**Q.** With CCC(CC)C(=O)Nc1ccc(C)c(O)c1 as the compound, how does the Potency read?
**A.** inconclusive: 35.5 µM [inhibitor, partial curve]

**Q.** With Cc1ccc(Cl)cc1N1CCN(C(=O)Cn2nc(C)n3c(cc4sccc43)c2=O)CC1 as the compound, how does the “activity change, negative = displacement” value read?
**A.** inactive: 4.61%

**Q.** For O=C(Cn1nc2c(cc1=O)CCCC2)NCc1ccccc1Cl, which Potency is on record?
**A.** inconclusive: 25.1 µM [inhibitor, single point]

**Q.** How did the Potency turn out when COC(=O)c1cccc(-n2nnnc2SCC(=O)Nc2cc(C)on2)c1 was run?
**A.** inconclusive: 25.1 µM [inhibitor, single point]

**Q.** Which Potency does the source give for CC1(CCc2ccccc2)NC(=O)N(Cc2nnc(-c3ccccc3Br)o2)C1=O (stereo not given) here?
**A.** inconclusive: 28.2 µM [inhibitor, partial curve]

**Q.** CC(C)c1ccc(S(=O)(=O)NCc2ccc3c(c2)OCO3)cc1 was tested. Which Potency did it give?
**A.** inconclusive: 39.8 µM [inhibitor, single point]

**Q.** Which Potency does the source give for Cc1cc(C)cc(NC(=O)Cn2nnc(C(=O)NCc3ccco3)c2N)c1 here?
**A.** inconclusive: 5.62 µM [inhibitor, partial curve] and inconclusive: 11.2 µM [inhibitor, full curve, poor fit]

**Q.** With COc1ccc(CNCC(O)(c2ccccc2)c2ccc(F)cc2)cc1 (stereo not given) as the compound, how does the “activity change, negative = displacement” value read?
**A.** inactive: -11.6%

**Q.** Which Potency does the source give for Cc1ccc(Nc2nnc(SCn3nnc4ccccc4c3=O)s2)cc1 here?
**A.** inconclusive: 12.6 µM [inhibitor, full curve, poor fit]

**Q.** CCC(C(=O)O)N1C(=O)/C(=C/c2cccn2C)SC1=S (stereo not given) was tested. Which “activity change, negative = displacement” value did it give?
**A.** inactive: -14.1%

**Q.** Cc1cc(C)c2c(c1)C1C=CCC1C(c1ccc(S(=O)(=O)N3CCOCC3)cc1)N2 (stereo not given) was tested. Which Potency did it give?
**A.** inconclusive: 20 µM [inhibitor, partial curve]

**Q.** How did the “activity change, negative = displacement” value turn out when COc1ccc(CNC(=O)COC(=O)CCc2c[nH]c3ccccc23)cc1 was run?
**A.** inactive: -11.9%

**Q.** For CCOC(=O)c1ccc(S(=O)(=O)N2CCN(CC(=O)NC(=O)NC(C)(C)C)CC2)cc1, which Potency is on record?
**A.** inconclusive: 50.1 µM [inhibitor, partial curve]

**Q.** How did the Potency turn out when c1ccc(CSCCc2ccncc2)cc1 was run?
**A.** inconclusive: 35.5 µM [inhibitor, partial curve]
